This note sets out measurements from patent US20020164690A1 (published 2002).

Experiment [1] deals with T1, recombinant human IL-13 (CHO; Applicants' own material) (human, UniProt P35225 in part, limits assumed). The experiment can be described thus: cell-based or functional assay.
Experiment [2] deals with recombinant human IL-13 (E. coli; Preprotech) (human, UniProt P35225 in part). The experiment can be described thus: cell-based or functional assay.
Experiment [3] addresses T1, recombinant human IL-13 (CHO; …). The experiment can be described thus: Kd inferred from the IC50 of the TF1 cell proliferation bioassay with 15 pM IL-13; not a direct binding assay.

Several values for one entry are separate records, joined by “and”; a condition that tells them apart may be missing. Equal entries are not always repeated.

B1: IL-4/IL-13 Trap 1132 (Fc fusion)
chain: [not shown - about 200 residues]APTETQPPVTNLSVSVENLATVIWTWNPPEGASSNCSLWYFSHFGDKQDKKIAPETRRSIEVPLNERICLQVGSQCSTNESEKPSILVEKCISPPEGDPESAVTELQCIWHNLSYMKCSWLPGRNTSPDTNYTLYYWHRSLEKIHQCENIFREGQYFGCSFDLTKVKDSSFEQHSVQIMVKDNAGKIKPSFNIVPLTSRVKPDPPHIKNLSFHNDDLYVQWENPQNFISRCLFYEVEVNNSQTETHNVFYVQEAKCENPEFERNVENTSCFMVPGVLPDTLNTVRIRVKTNKLCYEDDKLWSNWSQEMSIGKKRNST
As for B1, the “IC50, TF1 cell proliferation with 15 pM IL-13 (MTS, OD 490 nM)” value in experiment [1] was 16 pM and 17 pM; in experiment [2], 64 pM. The Kd – broadly, the equilibrium constant for the complex coming apart – in experiment [3] is ~9 pM.
